This note sets out measurements from the supplement of paper PMC11417369.

± gives the standard deviation of the averaged measurements. The list shows a part of the results.

In the assay the test system is PfAP2-I AP2 domain 3 (GST-tagged). Briefly: gcPBM binding intensity (ln(normalized median fluorescence intensity)); higher = stronger DNA binding. The method, boiled down: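 Binding intensity is defined as the maximum Masliner-normalised natural-log median intensity across replicate spots for either probe orientation. It was measured on an Agilent 4 × 180k array of primer-extended double-stranded 36-bp intergenic genomic probes and negative controls, to which GST-tagged P. falciparum DNA-binding domains made in E. coli were applied for 1 h in 1× PBS with 1% milk, 0.2 mg/ml BSA, 0.5% salmon testes DNA and 0.03% Triton X-100. Detection was by Alexa488 anti-GST antibody and scanning at 488 nm.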
For “CGAAAAATATGTATGAGTACTTATATTTAAACTATA [XGTACX_site1911]”, the “gcPBM binding intensity (ln)” value was found to be 7.57 ± 0.29.

For the sequence “ATGTCATAAAAACATATACACACTTGAAATATAAAA [CACACA_site2329]”, the “gcPBM binding intensity (ln)” value amounted to 7.76 ± 0.57. The result for “CATTCCTATTATTATACACACAAATTAAGAATTCAA [CACACA_site787]” reads 7.85 ± 0.47; that for “TATGTTTCTATATATACATGCAAGAAGAAATGTACT [TGCATGCA_site891]”, 7.98 ± 0.78. The result for “ATATGTACAAATTATACACACATGTACAATTATATA [CACACA_site1253]” reads 8.07 ± 0.39; that for “AAAAAAAAAAAAGAAAAATATATATATAAATAAATA [GTGCAC_negctrl_site569]”, 7.43 ± 0.33; that for “ATGTCACAATTTTTCACACACAAAATTTATATACAT [CACACA_site2030]”, 8.04 ± 0.71. The result for “AAATAAAGAAATGCAAGTACATACTAAACTAATCCA [XGTACX_site1209]” reads 7.61 ± 0.45. As for “TCTTAAATTATGATAAAATATAATAAATAAATAAAT [CACACA_negctrl_site1520]”, the “gcPBM binding intensity (ln)” value is 7.67 ± 0.73. For “TTGTTTTATACATAGTGTACATATAAAAATTTTTTT [XGTACX_site7549]”, the “gcPBM binding intensity (ln)” value amounted to 8.03 ± 0.2. Regarding “ATATATATTATAATCTGTACATAAATATATAATAAA [XGTACX_site5425]”, the “gcPBM binding intensity (ln)” value was 7.81 ± 0.35. The result for “ATATATAAATATGAAACACACATTCTATTTAATTCG [CACACA_site1450]” reads 7.55 ± 0.46. Turning to “CAGATAAATAAACACACACACACATATATATATATA [CACACA_site9311]”, the “gcPBM binding intensity (ln)” value amounted to 9.28 ± 0.38. The same measure for “ATTTTCCCTAGAATATGTACACATAGTAAATATTAT [XGTACX_site7499]”: 7.76 ± 0.42. The result for “ATAATATAAATATACACACACACATATATATATATA [CACACA_site2905]” reads 9.26 ± 0.47.

As to “TAATAAGGAATTTATAGTACATATTCATATGTTTTA [XGTACX_site2331]”, the “gcPBM binding intensity (ln)” value is 7.17 ± 0.35. The same measure for “ATAAAAATTTATATATGTACTTAATTTTTAATTTTT [XGTACX_site7482]”: 7.64 ± 0.3. The same measure for TATGTTTTTGAATGAGTGCATTAAAATAAAACATTT: 11.3 ± 0.61; for “TTCTTGTATATTCATAGTACATATAATGTCGTGTTA [XGTACX_site8991]”: 7.75 ± 0.47; for “GTTAATATTTTTGGGGGTACTTAAAAAAAAAAAAAA [XGTACX_site1477]”: 9.29 ± 0.26.

In the case of “AATTTAAAAAATAATTGTACAAAAAAAAAAAATCAG [XGTACX_site4576]”, the “gcPBM binding intensity (ln)” value came out at 8.12 ± 0.3. The same measure for TTACATACAATTGGTGTGCACATATATATATATATA: 10.29 ± 0.049. For “GAATATTAATTCAAGTGTACAAATATATATATAATT [XGTACX_site5103]”, the “gcPBM binding intensity (ln)” value is 7.76 ± 0.53.

On to “CAAAAGGATAGGCACACACACACACCGATATATATA [CACACA_site8685]”, for which the “gcPBM binding intensity (ln)” value stood at 8.39 ± 0.55.

Take “ACTTATTTCGATATGTGTACTTAATATATATATTTA [XGTACX_site6616]”: the “gcPBM binding intensity (ln)” value came out at 7.89 ± 0.39. Consider “AAAAATATTTTGGTTTGTACATATATTTTTACAATA [XGTACX_site8691]”, for which the “gcPBM binding intensity (ln)” value came to 7.65 ± 0.44. Consider “ATTTTTGTAATTATTTGTACACATTTATTTATGTGT [XGTACX_site1864]”, for which the “gcPBM binding intensity (ln)” value is 7.85 ± 0.42. The same measure for “AGACCTTTAATTTGTGTGCACATAATTAGTGTACAT [GTGCAC_site9434]”: 9.96 ± 0.16; for “ATTAAAAAAAAAAAAAGTACTTATAATTATACTCGT [XGTACX_site4852]”: 7.59 ± 0.43; for “TTCAAATTGTTTATATGTACTTATAAAAATTGTCTG [XGTACX_site977]”: 7.68 ± 0.38.

As for “ACAAATAAAAATATTACACACACTATTATATTGATA [CACACA_site1494]”, the “gcPBM binding intensity (ln)” value turned out to be 7.74 ± 0.6. The same measure for TTATATTATATATATGTGCACATTTTTAAACTTGGA: 9.58 ± 0.38. The result for “AAATATTTATATGTTACACACTGTTGATAATTTTCT [CACACA_site1347]” reads 7.49 ± 0.79; that for “GGAAGATGAAAAATAAAGCATGTGCTGTACAAACGA [CACACA_negctrl_site1625]”, 8.96 ± 0.38; that for “ATTCACATACATTACTTACACACCATATTAATATAT [CACACA_site459]”, 8.21 ± 0.88.

For “TAAAAAATAAGATATACACACATATATATATATATA [CACACA_site2324]”, the “gcPBM binding intensity (ln)” value amounted to 9.39 ± 0.28. For “TAACATATTAATAACATATTTATAATATATTAATAA [TGCATGCA_negctrl_site243]”, the “gcPBM binding intensity (ln)” value was found to be 7.11 ± 0.42. The same measure for “AAAAAAAAAAAAAAGGAACACACAAGTAACAATAAA [CACACA_site8792]”: 8.11 ± 0.45; for “AATTATACTTCCTTCACACAGTTACATCATATATTA [CACACA_site5942]”: 8.23 ± 0.54; for “AAAATCGTGTTCTGAATACACACTAATACAAAGTTG [CACACA_site3985]”: 7.68 ± 0.57. The same measure for “AAAAATACCTGAATATGTACATATGATCAATGGGCC [XGTACX_site887]”: 7.72 ± 0.74. The same measure for “ATTCATATATATTATACACACACATATATAAATATA [CACACA_site8228]”: 8.09 ± 0.5; for “AAATAAAATAAAAACATGCACACTTTATTTTTTTTA [CACACA_site2800]”: 8.54 ± 0.55; for “AGAAGTTTAAAAAGCACACAAAAAAAAAAAAAAAGA [CACACA_site3309]”: 8.38 ± 0.26.
